# Results reported in the supplement of paper PMC8728848.
# Some of the results follow.
# What was measured:
# Experiment in all cases: glycan array binding signal (z-score within array); higher = stronger binding
# Conditions in all cases: glycan notation: IUPAC condensed, linker removed
# [1] = target: Fuc(a1-2)Gal(b1-4)GlcNAc(b1-3)Gal(b1-4)GlcNAc(b1-3)Gal(b1-4)GlcNAc
# Summary of the method: (§1)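 Glycan array data came from 3228 arrays in the Consortium for Functional Glycomics database, and only arrays with an available protein sequence were kept. Glycan names were put into IUPAC-condensed notation, and columns mapping to the same glycan were averaged. The binding signal is a within-array Z-score, averaged across arrays of one protein sequence run at different concentrations or buffers and across linkers. A negative Z-score can be read as non-binding.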
# [2] = target: Fuc(a1-2)Gal(b1-4)GlcNAc(b1-3)GalNAc
# Summary of the method: as §1
# [3] = target: Fuc(a1-2)Gal(b1-4)GlcNAc(b1-3)[Fuc(a1-2)Gal(b1-4)GlcNAc(b1-6)]GalNAc
# Summary of the method: as §1
# [4] = target: Fuc(a1-2)Gal(b1-4)GlcNAc(b1-3)[Fuc(a1-3)[Gal(b1-4)]GlcNAc(b1-6)]Gal(b1-4)Glc
# Summary of the method: as §1
# [5] = target: Fuc(a1-2)Gal(b1-4)GlcNAc(b1-6)GalNAc
# Summary of the method: as §1
# [6] = target: Fuc(a1-2)Gal(b1-4)GlcNAc6S
# Summary of the method: as §1
# [7] = target: Fuc(a1-2)Gal(b1-4)[Fuc(a1-3)]GlcNAc
# Summary of the method: as §1
# [8] = target: Fuc(a1-2)Gal(b1-4)[Fuc(a1-3)]GlcNAc(b1-2)Man(a1-3)[Fuc(a1-2)Gal(b1-4)[Fuc(a1-3)]GlcNAc(b1-2)Man(a1-6)]Man(b1-4)GlcNAc(b1-4)[Fuc(a1-6)]GlcNAc
# Summary of the method: as §1
# [9] = target: Fuc(a1-2)Gal(b1-4)[Fuc(a1-3)]GlcNAc(b1-2)[Fuc(a1-2)Gal(b1-4)[Fuc(a1-3)]GlcNAc(b1-4)]Man(a1-3)[Fuc(a1-2)Gal(b1-4)[Fuc(a1-3)]GlcNAc(b1-2)Man(a1-6)]Man(b1-4)GlcNAc(b1-4)GlcNAc
# Summary of the method: as §1
# [10] = target: Fuc(a1-2)Gal(b1-4)[Fuc(a1-3)]GlcNAc(b1-3)Gal(b1-4)[Fuc(a1-3)]GlcNAc
# Summary of the method: as §1
# [11] = target: Fuc(a1-2)Gal(b1-4)[Fuc(a1-3)]GlcNAc(b1-3)Gal(b1-4)[Fuc(a1-3)]GlcNAc(b1-3)Gal(b1-4)[Fuc(a1-3)]GlcNAc
# Summary of the method: as §1
# [12] = target: Fuc(a1-2)Gal(b1-4)[Fuc(a1-3)]GlcNAc(b1-3)GalNAc
# Summary of the method: as §1
# [13] = target: Fuc(a1-2)Gal(b1-4)[Fuc(a1-3)]GlcNAc(b1-3)[Neu5Ac(a2-6)Gal(b1-4)GlcNAc(b1-6)]Gal(b1-4)Glc
# Summary of the method: as §1
# [14] = target: Fuc(a1-2)Gal3S(b1-4)GlcNAc
# Summary of the method: as §1
# [15] = target: Fuc(a1-2)Gal6S(b1-3)GlcNAc
# Summary of the method: as §1
# [16] = target: Fuc(a1-2)Gal6S(b1-3)GlcNAc6S
# Summary of the method: as §1
# Fuc(a1-2)Gal6S(b1-4)Glc = target: Fuc(a1-2)Gal6S(b1-4)Glc
# Summary of the method: as §1
# [17] = target: Fuc(a1-2)Gal6S(b1-4)Glc6S
# Summary of the method: as §1
# Fuc(a1-2)[Gal(a1-3)]Gal = target: Fuc(a1-2)[Gal(a1-3)]Gal
# Summary of the method: as §1
# [18] = target: Fuc(a1-2)[Gal(a1-3)]Gal(b1-3)GalNAc
# Summary of the method: as §1
# [19] = target: Fuc(a1-2)[Gal(a1-3)]Gal(b1-3)GalNAc(b1-3)Gal(a1-4)Gal(b1-4)Glc
# Summary of the method: as §1
# [20] = target: Fuc(a1-2)[Gal(a1-3)]Gal(b1-3)GlcNAc
# Summary of the method: as §1
# [21] = target: Fuc(a1-2)[Gal(a1-3)]Gal(b1-3)GlcNAc(b1-2)Man(a1-3)[Fuc(a1-2)[Gal(a1-3)]Gal(b1-3)GlcNAc(b1-2)Man(a1-6)]Man(b1-4)GlcNAc(b1-4)GlcNAc
# Summary of the method: as §1
# [22] = target: Fuc(a1-2)[Gal(a1-3)]Gal(b1-3)GlcNAc(b1-2)Man(a1-3)[Fuc(a1-2)[Gal(a1-3)]Gal(b1-3)GlcNAc(b1-2)Man(a1-6)]Man(b1-4)GlcNAc(b1-4)[Fuc(a1-6)]GlcNAc
# Summary of the method: as §1
# [23] = target: Fuc(a1-2)[Gal(a1-3)]Gal(b1-3)GlcNAc(b1-3)GalNAc
# Summary of the method: as §1
# [24] = target: Fuc(a1-2)[Gal(a1-3)]Gal(b1-3)GlcNAc(b1-6)GalNAc
# Summary of the method: as §1
# [25] = target: Fuc(a1-2)[Gal(a1-3)]Gal(b1-4)Glc
# Summary of the method: as §1
# [26] = target: Fuc(a1-2)[Gal(a1-3)]Gal(b1-4)GlcNAc
# Summary of the method: as §1
# [27] = target: Fuc(a1-2)[Gal(a1-3)]Gal(b1-4)GlcNAc(b1-2)Man
# Summary of the method: as §1
# [28] = target: Fuc(a1-2)[Gal(a1-3)]Gal(b1-4)GlcNAc(b1-2)Man(a1-3)[Fuc(a1-2)[Gal(a1-3)]Gal(b1-4)GlcNAc(b1-2)Man(a1-6)]Man(b1-4)GlcNAc(b1-4)GlcNAc
# Summary of the method: as §1
# [29] = target: Fuc(a1-2)[Gal(a1-3)]Gal(b1-4)GlcNAc(b1-2)Man(a1-3)[Fuc(a1-2)[Gal(a1-3)]Gal(b1-4)GlcNAc(b1-2)Man(a1-6)]Man(b1-4)GlcNAc(b1-4)[Fuc(a1-6)]GlcNAc
# Summary of the method: as §1
# [30] = target: Fuc(a1-2)[Gal(a1-3)]Gal(b1-4)GlcNAc(b1-3)GalNAc
# Summary of the method: as §1
# [31] = target: Fuc(a1-2)[Gal(a1-3)]Gal(b1-4)GlcNAc(b1-6)GalNAc
# Summary of the method: as §1
# [32] = target: Fuc(a1-2)[Gal(a1-3)]Gal(b1-4)[Fuc(a1-3)]Glc
# Summary of the method: as §1
# [33] = target: Fuc(a1-2)[Gal(a1-3)]Gal(b1-4)[Fuc(a1-3)]GlcNAc
# Summary of the method: as §1
# [34] = target: Fuc(a1-2)[Gal(a1-3)]Gal(b1-4)[Fuc(a1-3)]GlcNAc(b1-3)GalNAc
# Summary of the method: as §1
# [35] = target: Fuc(a1-2)[Gal(a1-4)]Gal(b1-4)GlcNAc
# Summary of the method: as §1
# [36] = target: Fuc(a1-2)[GalNAc(a1-3)]Gal
# Summary of the method: as §1
# [37] = target: Fuc(a1-2)[GalNAc(a1-3)]Gal(b1-3)GalNAc(a1-3)[Fuc(a1-2)]Gal(b1-4)GlcNAc
# Summary of the method: as §1
# [38] = target: Fuc(a1-2)[GalNAc(a1-3)]Gal(b1-3)GalNAc(b1-3)Gal(a1-4)Gal(b1-4)Glc
# Summary of the method: as §1
# [39] = target: Fuc(a1-2)[GalNAc(a1-3)]Gal(b1-3)GlcNAc
# Summary of the method: as §1
# [40] = target: Fuc(a1-2)[GalNAc(a1-3)]Gal(b1-3)GlcNAc(b1-2)Man(a1-3)[Fuc(a1-2)[GalNAc(a1-3)]Gal(b1-3)GlcNAc(b1-2)Man(a1-6)]Man(b1-4)GlcNAc(b1-4)GlcNAc
# Summary of the method: as §1
# [41] = target: Fuc(a1-2)[GalNAc(a1-3)]Gal(b1-3)GlcNAc(b1-2)Man(a1-3)[Fuc(a1-2)[GalNAc(a1-3)]Gal(b1-3)GlcNAc(b1-2)Man(a1-6)]Man(b1-4)GlcNAc(b1-4)[Fuc(a1-6)]GlcNAc
# Summary of the method: as §1
# [42] = target: Fuc(a1-2)[GalNAc(a1-3)]Gal(b1-3)GlcNAc(b1-3)GalNAc
# Summary of the method: as §1
# [43] = target: Fuc(a1-2)[GalNAc(a1-3)]Gal(b1-3)GlcNAc(b1-6)GalNAc
# Summary of the method: as §1
binder,measurement,setting,value
Fm1D (Escherichia coli) (protein) FSCNVDGGSSIGAGTTSVYVNLDPVIQPGQNLVVDLSQHISCWNDYGGWYDTDHINLVQGSAFAGSLQSYKGSLYWNNVTYPFPLTTNTNVLDIGDKTPMPLPLKLYITPVGAAGGVVIKAGEVIARIHMYKIATLGSGNPRNFTWNIISNNSVVMPTHHHHHH,glycan array binding signal (z-score),[1],-0.144
same,glycan array binding signal (z-score),[2],-0.145
same,glycan array binding signal (z-score),[3],-0.141
same,glycan array binding signal (z-score),[4],-0.141
same,glycan array binding signal (z-score),[5],-0.14
same,glycan array binding signal (z-score),[6],-0.139
same,glycan array binding signal (z-score),[7],-0.147
same,glycan array binding signal (z-score),[8],-0.142
same,glycan array binding signal (z-score),[9],-0.142
same,glycan array binding signal (z-score),[10],-0.138
same,glycan array binding signal (z-score),[11],-0.135
same,glycan array binding signal (z-score),[12],-0.122
same,glycan array binding signal (z-score),[13],-0.143
same,glycan array binding signal (z-score),[14],-0.144
same,glycan array binding signal (z-score),[15],-0.144
same,glycan array binding signal (z-score),[16],-0.133
same,glycan array binding signal (z-score),Fuc(a1-2)Gal6S(b1-4)Glc,-0.149
same,glycan array binding signal (z-score),[17],-0.14
same,glycan array binding signal (z-score),Fuc(a1-2)[Gal(a1-3)]Gal,-0.139
same,glycan array binding signal (z-score),[18],-0.134
same,glycan array binding signal (z-score),[19],-0.141
same,glycan array binding signal (z-score),[20],-0.141
same,glycan array binding signal (z-score),[21],-0.147
same,glycan array binding signal (z-score),[22],-0.136
same,glycan array binding signal (z-score),[23],-0.144
same,glycan array binding signal (z-score),[24],-0.131
same,glycan array binding signal (z-score),[25],-0.147
same,glycan array binding signal (z-score),[26],-0.143
same,glycan array binding signal (z-score),[27],-0.143
same,glycan array binding signal (z-score),[28],-0.142
same,glycan array binding signal (z-score),[29],-0.143
same,glycan array binding signal (z-score),[30],-0.143
same,glycan array binding signal (z-score),[31],-0.145
same,glycan array binding signal (z-score),[32],-0.143
same,glycan array binding signal (z-score),[33],-0.14
same,glycan array binding signal (z-score),[34],-0.145
same,glycan array binding signal (z-score),[35],-0.144
same,glycan array binding signal (z-score),[36],-0.126
same,glycan array binding signal (z-score),[37],0.047
same,glycan array binding signal (z-score),[38],0.02
same,glycan array binding signal (z-score),[39],-0.146
same,glycan array binding signal (z-score),[40],-0.144
same,glycan array binding signal (z-score),[41],-0.145
same,glycan array binding signal (z-score),[42],-0.144
same,glycan array binding signal (z-score),[43],-0.126
